According to PMC8209680 (Cell reports, 2021):

Target: the molecule itself
Assay: cryo-EM structure

B1: Mycobacterium tuberculosis ClpB, full-length (enzyme)
chain: not shown
How did the “stoichiometry N” value turn out when B1 was run?
Its value is 6.
